Test results reported in the supplement of paper PMC10441789.
The list shows a part of the results. Antibody binding of pooled human sera (four to six donors per pool; dilution not stated) to peptides of the Trypanosoma cruzi antigen TSSA on microarrays. Quantile-normalised fluorescence in arbitrary units, mean of duplicate arrays; higher = more binding. No active / inactive call. The uninfected pools are read here as the healthy donors of the same country. The strongest signals lie near the top of the scale (about 60,000).

Tests used:
Test in all cases: antibody binding signal (normalised fluorescence) (arbitrary fluorescence units); higher = stronger serum antibody binding to peptide
[1] = test system: pooled sera of chronic Chagas disease patients, Argentina
Procedure: (§1)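 Microarray of 15-residue peptides over residues 30-55 of Trypanosoma cruzi TSSAII, each with 1 to 10 substitutions at naturally variable positions, probed with one serum pool per country.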

[2] = test system: pooled sera of chronic Chagas disease patients, Bolivia
Procedure: as §1

[3] = test system: pooled sera of chronic Chagas disease patients, Brazil
Procedure: as §1

[4] = test system: pooled sera of chronic Chagas disease patients, Colombia
Procedure: as §1

[5] = test system: pooled sera of chronic Chagas disease patients, Mexico
Procedure: as §1

[6] = test system: pooled sera of chronic Chagas disease patients, USA
Procedure: as §1

[7] = test system: pooled sera of uninfected people, Argentina
Procedure: as §1

[8] = test system: pooled sera of uninfected people, Bolivia
Procedure: as §1

[9] = test system: pooled sera of uninfected people, Brazil
Procedure: as §1

[10] = test system: pooled sera of uninfected people, Mexico
Procedure: as §1

[11] = test system: pooled sera of uninfected people, USA
Procedure: as §1

Sequence	antibody binding signal [1]	antibody binding signal [2]	antibody binding signal [3]	antibody binding signal [4]	antibody binding signal [5]	antibody binding signal [6]	antibody binding signal [7]	antibody binding signal [8]	antibody binding signal [9]	antibody binding signal [10]	antibody binding signal [11]
GKDNKPATGEAPSPS	45800	29600	47200	3100	4210	38500	938	1170	247	352	131
GKDNKPAAGETPSQS	1800	433	18500	2060	3240	3650	237	868	151	403	69.7
ENKPAAGGTPSQPGA	386	2390	9370	1490	420	2210	319	562	1100	615	263
TEKKTATGGAPSQSG	2620	510	1360	3500	816	1640	392	459	128	699	263
KEKKPATGGTPSQPG	327	276	449	515	182	296	216	104	323	103	614
TPPSGKENKAATGET	24400	9780	3160	498	2750	4780	1720	1460	227	211	292
GKDNKAATGEAPSQP	26200	24300	43100	3280	4090	25100	279	274	141	74.7	98.2
GKEKKPATGEAPSPP	40000	27100	41600	5760	7250	30700	816	305	156	107	314
GTENKAATGGAPSQP	38900	2410	25100	2460	3220	4380	274	396	200	186	124
KDKKPATGEAPSQSG	41300	20100	42000	135	171	30400	830	332	157	121	111
PSGTDNKPAAGETPS	37200	18900	46400	5300	521	7600	210	680	674	453	212
DNKAATGETPSQPGA	7040	7610	41900	139	188	14100	126	932	375	213	204
PSGTDNKTAAGGTPS	12500	4480	45900	5860	1920	1590	251	573	2660	2560	300
EKKAATGEAPSQPGA	26400	12900	44000	362	714	26100	718	799	150	315	966
SGKDKKPATGGAPSQ	1230	317	591	883	947	1920	236	238	98.4	79.8	92.7
GTEKKPAAGEAPSPS	2080	542	6470	995	1340	14300	153	1070	1750	382	896
NKPATGGAPSQSGAS	866	1410	7840	214	668	1580	667	1630	281	471	1120
TSSTPPSGKDNKTAA	16200	6370	5200	2360	18200	3430	1290	364	148	113	304
DNKPAAGEAPSPSGA	462	2890	27700	297	159	16400	167	231	350	267	92.9
TENKAAAGGAPSQPG	34000	979	13500	2600	457	1820	224	128	179	145	247
ENKAATGEAPSQSGA	28800	43900	36700	200	147	34200	234	146	170	149	114
GKENKAAAGEAPSQP	11600	6560	39100	15900	16900	23100	355	146	99.5	121	88.8
TPPSGKDKKAAAGGA	4330	267	1100	959	41200	702	270	289	143	104	109
KEKKAATGEAPSPPG	11100	3090	18300	137	164	17700	344	74.4	99.8	77.8	113
PPSGTEKKTATGETP	20900	10900	15000	462	827	6680	867	292	314	143	212

Sequence	antibody binding signal [1]	antibody binding signal [2]	antibody binding signal [3]	antibody binding signal [4]	antibody binding signal [5]	antibody binding signal [6]	antibody binding signal [7]	antibody binding signal [8]	antibody binding signal [9]	antibody binding signal [10]	antibody binding signal [11]
NKTATGGAPSQPGAS	677	645	7880	582	450	516	845	1080	398	427	1250
PPSGTENKTATGEAP	47900	40500	41200	592	3750	23200	1700	313	247	196	395
STPPSGKEKKAATGE	18200	316	1090	582	29000	1610	547	609	106	105	187
KDNKAAAGETPSPSG	303	227	2520	232	204	1380	355	1760	155	148	1620
ENKAATGETPSQPGA	9160	7510	44200	284	174	14400	122	878	303	216	203
GKENKAATGGAPSQP	2550	691	17800	5050	4750	14200	326	180	105	125	123
TEKKPATGETPSPPG	34800	30200	31000	332	315	24200	146	410	373	1910	1700
KEKKAAAGGTPSPSG	181	186	124	1740	162	1280	95.4	82.4	474	145	133
STPPSGKDNKAAAGE	40000	25200	11500	156	36400	3930	419	921	172	119	132
GTENKAAAGEAPSPP	37000	576	24000	798	1170	11600	140	264	108	80.2	97.5
TDKKPAAGETPSQPG	1190	2200	32800	292	180	2930	117	386	187	143	129
KDKKTATGGTPSQSG	310	240	247	615	188	1220	264	88.5	130	101	101
PSGTDNKAAAGGAPS	14100	3430	45800	2510	2110	951	238	696	1660	287	300
PPSGTDNKAAAGGTP	42900	36800	45100	2510	1830	4660	507	823	2840	397	298
TPPSGKDKKAAAGGT	1990	548	413	941	38700	1180	137	613	1040	97.6	109
STPPSGKENKTATGE	18600	30200	12800	543	3270	4320	1920	1570	287	285	254
PSGTDNKPAAGEAPS	32200	20300	45200	4170	533	17200	207	703	644	389	205
PPSGKEKKTAAGGAP	1750	512	1800	5980	4570	2460	307	292	99.9	111	254
GTENKTAAGGTPSPS	30900	441	491	5440	786	1770	296	412	1220	1800	177
DNKAAAGEAPSPPGA	532	316	22300	144	134	11700	136	220	143	237	89.2
SGKENKAATGETPSQ	4880	6270	27000	1750	2120	18000	8100	3410	204	464	255
TEKKTATGETPSQSG	1060	1020	4790	427	407	8370	231	258	341	278	195
STPPSGTENKAAAGG	51300	45800	53100	1120	3800	38400	2980	707	468	620	843
TDKKPATGGTPSQSG	864	816	758	1720	921	477	339	542	897	249	153
